Screen size: about 48,000 compounds; about 120 (0.25%) were called active. Roughly 4% stayed inconclusive and do not appear here. Calls follow the shape of the dose curve; as a rule, active = well fitted activation curve with a large enough effect; inconclusive = small, poorly fitted or top-dose-only effect, or another doubt; inactive = no such curve, though single readings can be large or run the other way. Some of the results follow.

This assay is described as follows: Primary qHTS for Identification of Small Molecule Activators of Huntingtin-Antisense Promoter Activity. Also: nearly all actives have a fitted effect of over 55% in size. As to conditions: HEK293 HTT-AS promoter firefly luciferase reporter (activity 0% = vehicle and -100% = no light), 24 h; series mostly up to 57.5 µM; activity change, positive = activation: at the top concentration. The essentials:
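HEK293 Fluc reporter, 2,500 cells/well, 24 h pre-culture; cpds up to 57.5 uM final, 24 h 37 degrees C; Dual-Glo, 10 min RT; normalized vehicle = 0%, zero RLU = -100%.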
(In qHTS, concentration-response curves come from the screen itself.)
For the compound `Cc1cccc(Cn2c(C)c(C)c3cc(C(=O)NCc4ccc(C)o4)ccc32)c1`, the “activity change, positive = activation” value is inactive: -29.8%. As for `Cc1cc(NC(=O)CN(C)S(=O)(=O)c2ccc3c(c2)CCC(=O)N3)ccc1Br`, the figure is inactive: -5.54%; as for `CCOc1ccc(NC(=O)CN2C(=O)C(c3ccccc3)=NC23CCCCCC3)cc1`, inactive: -18.5%. `CCOc1ccc(CCNC(=O)c2cc3c(-c4cccc(OC)c4)nn(C)c3s2)cc1OCC`: the “activity change, positive = activation” value is inactive: -11%. In the case of `CCC(C(=O)NCCc1ccc(Cl)cc1)n1nc(C)c2c(C)n(-c3ccccc3)nc2c1=O` (stereo unspecified), the “activity change, positive = activation” value was inactive: -30.2%.

Turning to `Cc1nc2nc(SCC(=O)NC(C)c3ccccc3)nn2c(C)c1Cc1c(F)cccc1Cl` (stereo unspecified), the “activity change, positive = activation” value was inactive: -13.1%. For `CCOc1ccc(CN2C(=O)c3ccccc3Sc3ccc(C(=O)NCc4ccc(C)cc4)cc32)cc1`, the “activity change, positive = activation” value was inactive: -14.2%.

For `COc1cccc(CSc2nc3n(n2)C(c2ccccc2C)C(C(=O)Nc2ccccc2OC)=C(C)N3)c1` (stereo unspecified), the “activity change, positive = activation” value was inactive: -13.7%. As for `O=C(CSc1oc(-c2ccco2)nc1S(=O)(=O)c1ccc(Cl)cc1)c1ccccc1`, the figure is inactive: -7.49%; as for `Cc1cccc(C(=O)Nc2ccc(N3CCC(CCN4CCOCC4)CC3)c(C(=O)O)c2)c1`, inactive: -5.97%; as for `O=C(Nc1ccc(S(=O)(=O)N2CCC(c3nc4ccccc4s3)CC2)cc1)c1ccccc1F`, inactive: -9.7%. As for `CCN(C(=O)NCc1noc2ccccc12)c1cc(C)ccc1C`, the figure is inactive: -22.9%. With `CCOC(=O)c1nc(Nc2cccc(C)c2)c2ccccc2n1` the figure was inactive: -25.1%; with `CCCCCOc1ccc(C(=O)N(Cc2ccccc2)C2CCS(=O)(=O)C2)cc1` (stereo unspecified), inactive: -27.4%; with `Cc1ccc2nc(/C(C#N)=C/c3ccc(-c4cccc(Cl)c4)o3)[nH]c2c1`, inactive: -16.7%. For the compound `CCOc1ccc(CNC(=O)CCn2cccn2)cc1OC`, the “activity change, positive = activation” value is inactive: -6.73%. As for `CCCn1c(=O)c2sccc2n2c(CCCC(=O)NCCOC)nnc12`, the figure is inactive: -4.57%. With `CN(C)c1ccc(CN(CC2CCCO2)C(=O)COc2ccc(Cl)cc2)cc1` (stereo unspecified) the figure was inactive: -21.2%; with `CCc1ccc(-n2c(C)nc3cc(C(=O)NCCc4ccccc4)ccc32)cc1`, inactive: -14.9%. Consider `COc1ccccc1NC(=O)CSc1ncc2c(n1)-c1cc(Cl)ccc1N(C)S2(=O)=O`, for which the “activity change, positive = activation” value was inactive: -27.3%.

For the compound `Cc1nc(N2CCCC2)ncc1C(=O)Nc1ccccc1`, the “activity change, positive = activation” value was inactive: 1.45%. With `CC(C)CC(=O)Nc1ccc(C(=O)OCc2cc(=O)n3nc(C4CCCCC4)sc3n2)cc1` the figure was inactive: -1.6%; with `COc1cccc(CN2C(=O)c3ccccc3C2C(=O)NCCc2ccc(OC)c(OC)c2)c1` (stereo unspecified), inactive: -11.4%.

In the case of `CC(=O)N1CCCc2cc(S(=O)(=O)N3CCCC(C(=O)NCc4ccc(Cl)cc4)C3)ccc21` (stereo unspecified), the “activity change, positive = activation” value is inactive: -66.2%. With `Cc1cc(O)c(C(c2cccc(Cl)c2)N2CCN(c3ccccc3)CC2)c(=O)n1Cc1ccco1` (stereo unspecified) the figure was inactive: 3.7%.

Take `COCCCn1c(=N)c(C(=O)NC2CCCC2)cc2c(=O)n3ccccc3nc21`: the “activity change, positive = activation” value is inactive: -3.35%. As for `Cc1ccc(CCNC(=O)CCSCc2ccc(Cl)cc2)cc1`, the figure is inactive: -6.61%; as for `Cc1ccc(-c2nc3c4cnn(-c5cc(Cl)ccc5Cl)c4ncn3n2)cc1`, inactive: 0.688%. As for `CCN(CC)CCNC(=O)c1cc(Br)c(N)cc1OC`, the figure is inactive: -5.12%; as for `CCOc1ccc(-n2c(SCc3nc(-c4ccccc4C)no3)nnc2-c2ccccc2)cc1`, inactive: -8.47%. With `Cc1ccc(S(=O)(=O)c2nnn3c2nc(Nc2ccc(C(C)C)cc2)c2sccc23)cc1C` the figure was inactive: -19.1%; with `CC(C)Cc1nn2c(=O)cc(COC(=O)c3ccccc3NC(=O)c3ccccc3)nc2s1`, inactive: -16.2%; with `CC(=O)Nc1ccc(NC(=O)CN2C(=O)CN(C)C(=O)c3ccccc32)cc1`, inactive: -4.65%.

On to `O=C(Nc1ccc2c(c1)N(C1CCCC1)C(=O)c1ccccc1S2)c1ccccc1`, for which the “activity change, positive = activation” value is inactive: -39.5%. As for `COc1ccc(CCNC(=O)C(=O)NCC(c2cccs2)S(=O)(=O)c2ccccc2)cc1` (stereo unspecified), the figure is inactive: -41.9%. With `Cc1ccc(SCC(=O)Nc2ccc3oc(-c4cccc(C)c4)nc3c2)cc1` the figure was inactive: -3.84%; with `COc1cccc(-c2nc(CS(=O)CC(=O)N3CCN(c4cccc(C(F)(F)F)c4)CC3)c(C)o2)c1` (stereo unspecified), inactive: -28%.

Consider `Cc1ccc(Cl)cc1NC(=O)CCS(=O)(=O)c1ccc(Br)s1`, for which the “activity change, positive = activation” value is inactive: -21.6%. As for `CCN1C(=O)CC(C(=O)Nc2ccc(OC)cc2)SC1=Nc1ccc(C)c(C)c1` (stereo unspecified), the figure is inactive: -6.18%; as for `O=C(NCCC1=CCCCC1)c1ccc2c(c1)N(Cc1ccccc1)C(=O)c1ccccc1S2(=O)=O`, inactive: -5.89%; as for `O=C(Cn1cc(SCc2ccccc2Cl)c2ccccc21)N1CCCCCC1`, inactive: -13.5%. On to `COc1ccc(OC)c(CNS(=O)(=O)c2ccc(-c3cc(C(F)(F)F)on3)s2)c1`, for which the “activity change, positive = activation” value is inactive: -42.4%.

`CCC1CN(C(=O)NCc2ccc(F)cc2)c2ccccc2O1` (stereo unspecified): the “activity change, positive = activation” value was inactive: -15.1%.

As to `Cc1ccc(NC(=O)c2ccco2)c(OCc2cc(=O)n3cc(C)sc3n2)c1`, the “activity change, positive = activation” value was inactive: -7.4%. With `COc1ccc(-n2c(=O)c3c4c(sc3n(Cc3cc(=O)n5c(C)cccc5n3)c2=O)CCC4)c(OC)c1` the figure was inactive: -6.73%; with `CC(C)(Cc1c[nH]c2ccccc12)NCC(O)COc1ccccc1C#N` (stereo unspecified), inactive: -8.35%.

Take `Cc1ccc(Cn2c(=O)c3ccccc3n3c(-c4ccccc4)nnc23)cc1`: the “activity change, positive = activation” value is inactive: 3.37%. In the case of `CCc1ccc(CNC(=O)CSCc2cnn(-c3ccccc3)c2-n2cccc2)cc1`, the “activity change, positive = activation” value is inactive: -10.3%.

In the case of `COc1ccc(C2CC(=O)N3CN(C4CCCCC4)CSC3=C2C#N)cc1` (stereo unspecified), the “activity change, positive = activation” value is inactive: 4.65%. With `Cc1ccc(OCC(=O)Nc2ccc3nc(SCC(=O)N4CCCC4)sc3c2)cc1C` the figure was inactive: -8.78%. With `COc1ccc(NC(=O)CCCS(=O)(=O)c2nc(-c3ccc(OC)c(OC)c3)cc(C(F)(F)F)n2)cc1OC` the figure was inactive: -73.8%; with `O=C(NCc1ccc(Cl)cc1)C1CCCN(c2ncnc3onc(-c4ccc(F)cc4)c23)C1` (stereo unspecified), inactive: -20.1%; with `Cc1cccc(NC(=O)c2c(Br)sc3c2CCCC3)c1`, inactive: -24.4%.

With `COc1ccc(Nc2nnc(-c3ccc(C)c(S(=O)(=O)N4CCOCC4)c3)c3ccccc23)cc1`, the “activity change, positive = activation” value is inactive: 10.4%.

Consider `COc1ccccc1N1CCN(C(=O)CSc2nc(-c3ccc(C(C)C)cc3)no2)CC1`, for which the “activity change, positive = activation” value was inactive: -19.2%. With `OC(CCN1CCCCC1)(c1ccccc1)c1ccccc1` the figure was inactive: -6.68%. Take `CCOc1cc(C2c3c(oc4ccc(F)cc4c3=O)C(=O)N2Cc2ccc(C)cc2)ccc1O` (stereo unspecified): the “activity change, positive = activation” value is inactive: -11.6%. As for `COc1ccc(C2CC(=O)c3c([nH]c(C(=O)OCc4ccccc4)c3C)C2)cc1OC` (stereo unspecified), the figure is inactive: -22.1%; as for `CCCCNC(=O)CSc1nc2n[nH]c(C)c2c(=N)n1-c1ccccc1CC`, inactive: -33.8%. As for `O=C(COc1ccccc1F)Nc1nnc(S(=O)(=O)N2CCCCCC2)s1`, the figure is inactive: -16.3%; as for `O=C(NCCCN1CCN(c2ccccc2)CC1)c1cc2c(s1)-c1ccccc1OC2`, inactive: -37.3%.

The values above are taken from PubChem BioAssay AID1508624 (National Center for Advancing Translational Sciences (NCATS), 2021).
